Data on 2 molecules can be found in PMC4534575, “The RNA Helicase DHX34 Activates NMD by Promoting a Transition from the Surveillance to the Decay-Inducing Complex” (Cell Reports, 2014).

By UniProt entry, the sequences of proteins in these tests, tags left out.
UniProt Q96Q15: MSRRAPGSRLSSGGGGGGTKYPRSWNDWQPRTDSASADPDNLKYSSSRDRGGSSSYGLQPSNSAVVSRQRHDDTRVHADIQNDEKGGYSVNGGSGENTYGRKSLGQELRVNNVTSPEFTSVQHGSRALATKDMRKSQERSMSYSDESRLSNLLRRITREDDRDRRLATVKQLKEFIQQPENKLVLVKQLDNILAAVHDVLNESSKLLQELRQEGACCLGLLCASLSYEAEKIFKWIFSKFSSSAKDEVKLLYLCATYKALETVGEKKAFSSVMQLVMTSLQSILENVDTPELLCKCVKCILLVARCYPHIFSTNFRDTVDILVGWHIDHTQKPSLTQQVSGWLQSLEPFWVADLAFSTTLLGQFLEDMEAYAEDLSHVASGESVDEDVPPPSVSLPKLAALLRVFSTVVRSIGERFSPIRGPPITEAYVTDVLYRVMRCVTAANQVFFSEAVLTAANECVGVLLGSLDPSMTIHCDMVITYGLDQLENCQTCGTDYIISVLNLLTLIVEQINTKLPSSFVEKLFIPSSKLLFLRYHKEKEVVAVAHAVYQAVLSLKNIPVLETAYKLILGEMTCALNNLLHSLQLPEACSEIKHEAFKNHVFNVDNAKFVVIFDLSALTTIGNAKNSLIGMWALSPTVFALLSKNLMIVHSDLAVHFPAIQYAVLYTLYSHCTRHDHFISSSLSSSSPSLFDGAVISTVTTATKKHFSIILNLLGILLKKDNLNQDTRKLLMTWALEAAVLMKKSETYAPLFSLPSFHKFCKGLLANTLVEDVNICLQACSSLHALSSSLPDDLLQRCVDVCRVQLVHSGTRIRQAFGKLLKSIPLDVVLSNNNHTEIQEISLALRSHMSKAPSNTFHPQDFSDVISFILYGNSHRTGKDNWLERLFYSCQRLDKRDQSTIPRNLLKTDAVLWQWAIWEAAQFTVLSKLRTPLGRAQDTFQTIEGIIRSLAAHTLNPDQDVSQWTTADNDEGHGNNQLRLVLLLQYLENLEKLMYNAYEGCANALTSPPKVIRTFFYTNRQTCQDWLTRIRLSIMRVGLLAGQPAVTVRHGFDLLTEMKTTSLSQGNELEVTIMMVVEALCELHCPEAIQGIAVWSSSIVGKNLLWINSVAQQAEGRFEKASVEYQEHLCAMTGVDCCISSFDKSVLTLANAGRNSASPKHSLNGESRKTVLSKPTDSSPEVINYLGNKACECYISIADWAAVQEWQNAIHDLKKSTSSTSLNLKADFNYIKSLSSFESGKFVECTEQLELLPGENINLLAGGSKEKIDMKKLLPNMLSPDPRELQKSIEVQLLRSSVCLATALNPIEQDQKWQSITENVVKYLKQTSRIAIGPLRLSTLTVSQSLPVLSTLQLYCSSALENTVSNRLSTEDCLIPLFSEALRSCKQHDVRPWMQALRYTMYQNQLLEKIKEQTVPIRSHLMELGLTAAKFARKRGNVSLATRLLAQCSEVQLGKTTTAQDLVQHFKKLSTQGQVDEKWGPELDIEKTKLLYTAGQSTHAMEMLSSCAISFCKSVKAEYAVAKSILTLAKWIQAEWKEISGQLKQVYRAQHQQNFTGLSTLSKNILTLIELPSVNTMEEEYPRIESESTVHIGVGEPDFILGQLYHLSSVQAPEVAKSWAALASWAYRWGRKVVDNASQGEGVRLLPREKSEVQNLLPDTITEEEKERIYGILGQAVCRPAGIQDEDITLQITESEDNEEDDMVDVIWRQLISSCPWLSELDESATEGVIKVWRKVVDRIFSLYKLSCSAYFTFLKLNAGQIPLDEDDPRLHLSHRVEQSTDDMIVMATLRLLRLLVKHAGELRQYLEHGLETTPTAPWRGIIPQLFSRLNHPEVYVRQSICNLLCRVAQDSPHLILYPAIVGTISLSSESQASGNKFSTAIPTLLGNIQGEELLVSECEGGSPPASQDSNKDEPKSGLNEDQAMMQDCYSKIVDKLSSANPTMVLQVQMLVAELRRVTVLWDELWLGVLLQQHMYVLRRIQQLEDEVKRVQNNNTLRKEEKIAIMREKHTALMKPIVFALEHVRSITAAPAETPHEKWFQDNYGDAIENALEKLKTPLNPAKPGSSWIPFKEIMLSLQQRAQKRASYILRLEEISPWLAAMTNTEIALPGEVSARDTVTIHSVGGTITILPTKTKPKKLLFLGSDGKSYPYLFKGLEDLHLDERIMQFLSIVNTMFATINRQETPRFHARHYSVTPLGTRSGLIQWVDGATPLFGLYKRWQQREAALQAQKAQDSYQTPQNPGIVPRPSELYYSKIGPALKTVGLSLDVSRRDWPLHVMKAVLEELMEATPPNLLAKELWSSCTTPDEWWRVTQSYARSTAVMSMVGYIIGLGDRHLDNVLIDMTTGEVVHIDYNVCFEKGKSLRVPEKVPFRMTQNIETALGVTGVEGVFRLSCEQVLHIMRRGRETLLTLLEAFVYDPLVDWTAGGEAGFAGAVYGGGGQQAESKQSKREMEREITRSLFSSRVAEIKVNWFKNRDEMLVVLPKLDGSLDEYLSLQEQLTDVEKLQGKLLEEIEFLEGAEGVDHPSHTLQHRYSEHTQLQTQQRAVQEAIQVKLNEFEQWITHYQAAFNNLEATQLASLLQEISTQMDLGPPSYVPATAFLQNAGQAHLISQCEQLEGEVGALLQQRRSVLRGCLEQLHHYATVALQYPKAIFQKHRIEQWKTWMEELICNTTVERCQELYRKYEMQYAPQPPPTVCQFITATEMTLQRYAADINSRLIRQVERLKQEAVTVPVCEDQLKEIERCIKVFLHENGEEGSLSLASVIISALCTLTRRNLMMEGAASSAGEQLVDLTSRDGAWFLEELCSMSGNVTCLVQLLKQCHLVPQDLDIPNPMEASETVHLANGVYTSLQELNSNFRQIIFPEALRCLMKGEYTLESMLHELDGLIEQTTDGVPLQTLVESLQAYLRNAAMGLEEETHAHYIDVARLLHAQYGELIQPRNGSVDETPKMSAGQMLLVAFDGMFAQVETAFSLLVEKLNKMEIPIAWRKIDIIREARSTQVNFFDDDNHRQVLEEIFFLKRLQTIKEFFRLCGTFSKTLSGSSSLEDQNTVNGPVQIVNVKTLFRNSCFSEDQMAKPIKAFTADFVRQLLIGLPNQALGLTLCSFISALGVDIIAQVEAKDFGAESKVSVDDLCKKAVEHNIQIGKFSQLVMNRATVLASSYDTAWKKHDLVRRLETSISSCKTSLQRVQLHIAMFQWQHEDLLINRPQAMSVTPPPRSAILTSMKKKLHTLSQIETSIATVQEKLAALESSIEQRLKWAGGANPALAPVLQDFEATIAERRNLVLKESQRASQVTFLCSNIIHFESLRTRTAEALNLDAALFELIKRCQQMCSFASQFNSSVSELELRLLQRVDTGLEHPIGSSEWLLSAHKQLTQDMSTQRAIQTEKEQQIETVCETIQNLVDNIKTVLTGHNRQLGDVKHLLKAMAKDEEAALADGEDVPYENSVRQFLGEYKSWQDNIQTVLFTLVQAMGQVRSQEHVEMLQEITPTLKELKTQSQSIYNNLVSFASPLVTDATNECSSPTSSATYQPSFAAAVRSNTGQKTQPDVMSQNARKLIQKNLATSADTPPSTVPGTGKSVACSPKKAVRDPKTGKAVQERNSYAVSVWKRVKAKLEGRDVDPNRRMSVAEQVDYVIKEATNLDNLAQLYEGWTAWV

No constants are given. Whether binding was seen depends on the method and setting. In cells and extracts the contact can be indirect. Some entries that bind do so weakly or less than the wild type. Where a sequence is shown, tags or fusion partners need not be part of it.

The target of assay [1] is T1, FLAG-UPF1 (wild-type) (human) (UniProt Q92900).
T1 sequence: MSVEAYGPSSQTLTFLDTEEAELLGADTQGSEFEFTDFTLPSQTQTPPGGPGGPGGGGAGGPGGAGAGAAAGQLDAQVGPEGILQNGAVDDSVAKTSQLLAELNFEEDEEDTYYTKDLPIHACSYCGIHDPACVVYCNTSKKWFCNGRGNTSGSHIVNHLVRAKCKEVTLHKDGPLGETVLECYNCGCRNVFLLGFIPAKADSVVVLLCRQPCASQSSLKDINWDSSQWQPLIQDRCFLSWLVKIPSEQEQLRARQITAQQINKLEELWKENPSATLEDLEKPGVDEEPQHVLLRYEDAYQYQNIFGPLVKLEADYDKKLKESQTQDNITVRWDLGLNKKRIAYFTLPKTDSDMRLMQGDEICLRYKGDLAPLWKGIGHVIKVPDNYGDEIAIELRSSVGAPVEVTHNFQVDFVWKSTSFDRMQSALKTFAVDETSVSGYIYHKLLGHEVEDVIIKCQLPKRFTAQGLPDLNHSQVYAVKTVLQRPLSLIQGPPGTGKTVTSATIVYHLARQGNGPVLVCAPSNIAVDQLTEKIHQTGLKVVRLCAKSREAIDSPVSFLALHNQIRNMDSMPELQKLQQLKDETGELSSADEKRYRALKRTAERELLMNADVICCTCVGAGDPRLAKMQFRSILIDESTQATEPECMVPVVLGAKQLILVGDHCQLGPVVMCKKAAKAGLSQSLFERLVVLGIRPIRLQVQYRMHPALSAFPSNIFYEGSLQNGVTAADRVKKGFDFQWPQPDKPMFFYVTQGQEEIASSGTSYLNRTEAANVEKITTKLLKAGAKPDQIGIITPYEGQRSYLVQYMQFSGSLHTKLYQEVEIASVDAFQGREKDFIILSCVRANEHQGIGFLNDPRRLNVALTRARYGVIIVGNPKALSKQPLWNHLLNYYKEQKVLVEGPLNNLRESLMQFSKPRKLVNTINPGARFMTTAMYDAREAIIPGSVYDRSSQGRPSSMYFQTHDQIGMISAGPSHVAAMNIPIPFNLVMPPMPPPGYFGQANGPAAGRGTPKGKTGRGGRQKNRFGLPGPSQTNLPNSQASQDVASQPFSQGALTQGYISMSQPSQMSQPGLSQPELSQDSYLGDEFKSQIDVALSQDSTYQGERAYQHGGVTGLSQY
Briefly: co-IP; anti-FLAG IP of transiently transfected FLAG-UPF1 (wild-type or mutants) from HEK293T lysate; endogenous partners by western blot; in the absence or presence of RNase A (Figures 2B, S2B); cells also depleted of DHX34 by shRNA, rescued with T7-DHX34, or cotransfected with T7-DHX34. Background: A western blot detects proteins with antibodies after separation by electrophoresis.

The target in another assay is T2, FLAG-UPF1 K498A (human) (UniProt Q92900).
T2 sequence: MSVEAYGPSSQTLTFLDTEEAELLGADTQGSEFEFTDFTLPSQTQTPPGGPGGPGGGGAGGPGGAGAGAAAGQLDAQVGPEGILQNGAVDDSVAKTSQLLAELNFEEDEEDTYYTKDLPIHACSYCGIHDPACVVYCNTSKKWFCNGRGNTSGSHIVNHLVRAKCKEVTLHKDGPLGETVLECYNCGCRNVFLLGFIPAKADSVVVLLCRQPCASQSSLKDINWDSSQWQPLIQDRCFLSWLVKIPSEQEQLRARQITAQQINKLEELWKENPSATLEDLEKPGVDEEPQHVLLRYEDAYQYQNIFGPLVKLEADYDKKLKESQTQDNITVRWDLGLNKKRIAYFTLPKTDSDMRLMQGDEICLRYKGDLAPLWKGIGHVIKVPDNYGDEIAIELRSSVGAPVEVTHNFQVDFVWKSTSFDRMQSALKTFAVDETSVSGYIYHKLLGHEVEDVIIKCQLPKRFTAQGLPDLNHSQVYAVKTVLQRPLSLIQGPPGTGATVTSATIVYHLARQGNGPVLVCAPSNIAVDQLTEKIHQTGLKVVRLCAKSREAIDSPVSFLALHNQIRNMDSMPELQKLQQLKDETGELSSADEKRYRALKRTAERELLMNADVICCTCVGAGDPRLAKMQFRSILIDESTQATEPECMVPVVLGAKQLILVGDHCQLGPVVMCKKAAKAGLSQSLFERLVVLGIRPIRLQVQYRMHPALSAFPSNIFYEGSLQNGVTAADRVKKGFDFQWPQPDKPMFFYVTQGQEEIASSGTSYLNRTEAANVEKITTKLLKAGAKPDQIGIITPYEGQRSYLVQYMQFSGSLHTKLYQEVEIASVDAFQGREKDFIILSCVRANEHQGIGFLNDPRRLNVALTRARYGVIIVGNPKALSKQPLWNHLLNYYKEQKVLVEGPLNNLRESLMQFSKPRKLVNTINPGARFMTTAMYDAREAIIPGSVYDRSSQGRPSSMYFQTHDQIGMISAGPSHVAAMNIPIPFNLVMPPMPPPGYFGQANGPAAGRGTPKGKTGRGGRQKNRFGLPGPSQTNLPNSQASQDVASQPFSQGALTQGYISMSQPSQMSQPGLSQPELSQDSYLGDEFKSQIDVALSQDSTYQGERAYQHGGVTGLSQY
Briefly: co-IP; anti-FLAG IP from HEK293T cells cotransfected with FLAG-UPF1 (wild-type or mutants) and T7-DHX34 (wild-type or ATPase mutants); RNase A in Figure 3C; T7-DHX34 by western blot.

For SMG1 (from UniProt Q96Q15 1-3661), in assay [1], the binding result is listed as “binds”.

B1: T7-DHX34 (wild-type) (protein, UniProt Q14147 1-1143)
chain: MPPPRTREGRDRRDHHRAPSEEEALEKWDWNCPETRRLLEDAFFREEDYIRQGSEECQKFWTFFERLQRFQNLKTSRKEEKDPGQPKHSIPALADLPRTYDPRYRINLSVLGPATRGSQGLGRHLPAERVAEFRRALLHYLDFGQKQAFGRLAKLQRERAALPIAQYGNRILQTLKEHQVVVVAGDTGCGKSTQVPQYLLAAGFSHVACTQPRRIACISLAKRVGFESLSQYGSQVGYQIRFESTRSAATKIVFLTVGLLLRQIQREPSLPQYEVLIVDEVHERHLHNDFLLGVLQRLLPTRPDLKVILMSATINISLFSSYFSNAPVVQVPGRLFPITVVYQPQEAEPTTSKSEKLDPRPFLRVLESIDHKYPPEERGDLLVFLSGMAEISAVLEAAQTYASHTQRWVVLPLHSALSVADQDKVFDVAPPGVRKCILSTNIAETSVTIDGIRFVVDSGKVKEMSYDPQAKLQRLQEFWISQASAEQRKGRAGRTGPGVCFRLYAESDYDAFAPYPVPEIRRVALDSLVLQMKSMSVGDPRTFPFIEPPPPASLETAILYLRDQGALDSSEALTPIGSLLAQLPVDVVIGKMLILGSMFSLVEPVLTIAAALSVQSPFTRSAQSSPECAAARRPLESDQGDPFTLFNVFNAWVQVKSERSRNSRKWCRRRGIEEHRLYEMANLRRQFKELLEDHGLLAGAQAAQVGDSYSRLQQRRERRALHQLKRQHEEGAGRRRKVLRLQEEQDGGSSDEDRAGPAPPGASDGVDIQDVKFKLRHDLAQLQAAASSAQDLSREQLALLKLVLGRGLYPQLAVPDAFNSSRKDSDQIFHTQAKQGAVLHPTCVFAGSPEVLHAQELEASNCDGSRDDKDKMSSKHQLLSFVSLLETNKPYLVNCVRIPALQSLLLFSRSLDTNGDCSRLVADGWLELQLADSESAIRLLAASLRLRARWESALDRQLAHQAQQQLEEEEEDTPVSPKEVATLSKELLQFTASKIPYSLRRLTGLEVQNMYVGPQTIPATPHLPGLFGSSTLSPHPTKGGYAVTDFLTYNCLTNDTDLYSDCLRTFWTCPHCGLHAPLTPLERIAHENTCPQAPQDGPPGAEEAALETLQKTSVLQRPYHCEACGKDFLFTPTEVLRHRKQHV
Turning to B1, in the assay with FLAG-UPF1 K498A (human), the binding entry is listed as “binds”.
